The source of these data is patent publication US6197752A, “Glycomimetics as selectin antagonists and pharmaceuticals having antiinflammatory activity prepared therefrom” (Glycorex AB, priority 1995, dated 2001).

Structures are written as SMILES.

This assay relates to leukocyte adhesion on the endothelium. Description: LPS-induced leukocyte adhesion in vivo, intravital microscopy in the mesenterium of the rat. The note with it: 50 mg/kg, 17 days p.o., Lewis (m). From the text:
In inflammatory processes and other states which activate the cytokines, a critical part is played by the destruction of tissue by means of leukocytes which migrate in or which block the microcirculation. The first phase, which is critical for the subsequent course of the disease, is the activation of leukocytes within the blood stream, especially in the pre- and post-capillary area. […] All subsequent leukocyte effects, i.e. active migration through the vessel wall and subsequent oriented migration in the tissue, are secondary reactions (Harlan, J. M., Leukocyte-endothelial interaction, Blood 65, 513-525,1985). […]
The induced adhesion of leukocytes is quantified by an investigation technique involving intravital microscopy in the mesenterium of the rat (Atherton A. and Born G.V.R., Quantitative investigations of the adhesiveness of circulating polymorphonuclear leukocytes to blood vessel walls. J. Physiol. 222, 447-474,1972; Seiffge, D. Methoden zur Untersuchung der Rezeptor-vermittelten Interaktion zwischen Leukozyten und Endotheizellen im Entzundungsgeschehen [Methods of investigating receptor-mediated interaction between leukocytes and endothelial cells in the case of inflammation] in: Ersatz- und Erganzungsmethoden zu Tierversuchen in der biomedizinischen Forschung, Schoffl, H. et al., (eds.) Springer, 1995 (in press)). […]

With `C[C@@H]1O[C@@H](CCCOC(=O)N2CCC(C(=O)O)CC2)[C@@H](O)[C@H](O)[C@@H]1O` [Compound 12c], the “inhibition of leukocyte adhesion” value reads like this: (218 +/- 10.8 g group) 11%; (237 +/- 22.7 g group) 74%.
